# The other results are listed elsewhere or left out.
# How the values were obtained:
# HSkMC = human skeletal muscle cells; experiment: cytotoxicity call (relative viability < 0.9); details: 10 µM
# HepG2 = experiment: cytotoxicity call (relative viability < 0.9); details: 10 µM
# S. aureus RN4220 = experiment: growth inhibition call (relative growth <= 0.2); details: 50 µM
Structure (SMILES),cytotoxicity call (HSkMC),cytotoxicity call (HepG2),growth inhibition call (S. aureus RN4220)
C[C@@H]1CN([C@H](C)CO)C(=O)c2cc(NC(=O)CCCCCC(=O)Nc3ccccc3N)ccc2O[C@@H](C)CCCCO[C@@H]1CN(C)C(=O)C1CCCCC1,inactive,inactive,inactive
CCNC(=O)C[C@H]1CC[C@H](NC(=O)C2CCOCC2)[C@H](CO)O1,inactive,inactive,inactive
CC(C)NC(=O)N(C)C[C@H]1Oc2cc(-c3ccccc3F)ccc2S(=O)(=O)N([C@H](C)CO)C[C@H]1C,inactive,inactive,inactive
COc1ccc(NC(=O)N(C)C[C@H]2OCCCC[C@H](C)Oc3ccc(NS(=O)(=O)c4c(C)noc4C)cc3C(=O)N([C@H](C)CO)C[C@@H]2C)cc1,inactive,inactive,inactive
O=C(C[C@H]1CC[C@H]2[C@@H](COC[C@@H](O)CN2S(=O)(=O)c2ccc(Cl)cc2)O1)N[C@@H]1CCN(Cc2ccccc2)C1,inactive,active,inactive
C[C@H](CO)N1C[C@H](C)[C@H](CN(C)C(=O)Nc2cccc3ccccc23)Oc2ncc(C#Cc3ccc(C(F)(F)F)cc3)cc2C1=O,inactive,inactive,inactive
NS(=O)(=O)c1ccc(C(=O)O)cc1,inactive,inactive,inactive
CC(C)(C)C(=O)N1CCNCC1,inactive,inactive,inactive
COc1ccccc1NCC(=O)NN,inactive,inactive,inactive
COC[C@H](NC(=O)c1cnc(C)s1)C(=O)N[C@@H](COC)C(=O)N[C@@H](Cc1ccccc1)C(=O)[C@@]1(C)CO1,active,active,inactive
C[C@@H]1CCCCO[C@@H](CN(C)Cc2ccc(C(F)(F)F)cc2)[C@H](C)CN([C@H](C)CO)C(=O)c2cc(NS(=O)(=O)c3ccc(Cl)cc3)ccc2O1,active,active,inactive
